# The campaign covered roughly 310,000 compounds. About 2,200 (0.71%) showed an effect of 50% or more. Effects have a minus sign here. This is one part of the list.
# Biological target: human ether-à-go-go-related gene (hERG) potassium channel (human, UniProt Q12809)
# Test: primary screen, population patch clamp on CHO cells stably expressing hERG
# human ether-à-go-go-related gene (hERG) potassium channel, sequence (Q12809 whole entry, looked up): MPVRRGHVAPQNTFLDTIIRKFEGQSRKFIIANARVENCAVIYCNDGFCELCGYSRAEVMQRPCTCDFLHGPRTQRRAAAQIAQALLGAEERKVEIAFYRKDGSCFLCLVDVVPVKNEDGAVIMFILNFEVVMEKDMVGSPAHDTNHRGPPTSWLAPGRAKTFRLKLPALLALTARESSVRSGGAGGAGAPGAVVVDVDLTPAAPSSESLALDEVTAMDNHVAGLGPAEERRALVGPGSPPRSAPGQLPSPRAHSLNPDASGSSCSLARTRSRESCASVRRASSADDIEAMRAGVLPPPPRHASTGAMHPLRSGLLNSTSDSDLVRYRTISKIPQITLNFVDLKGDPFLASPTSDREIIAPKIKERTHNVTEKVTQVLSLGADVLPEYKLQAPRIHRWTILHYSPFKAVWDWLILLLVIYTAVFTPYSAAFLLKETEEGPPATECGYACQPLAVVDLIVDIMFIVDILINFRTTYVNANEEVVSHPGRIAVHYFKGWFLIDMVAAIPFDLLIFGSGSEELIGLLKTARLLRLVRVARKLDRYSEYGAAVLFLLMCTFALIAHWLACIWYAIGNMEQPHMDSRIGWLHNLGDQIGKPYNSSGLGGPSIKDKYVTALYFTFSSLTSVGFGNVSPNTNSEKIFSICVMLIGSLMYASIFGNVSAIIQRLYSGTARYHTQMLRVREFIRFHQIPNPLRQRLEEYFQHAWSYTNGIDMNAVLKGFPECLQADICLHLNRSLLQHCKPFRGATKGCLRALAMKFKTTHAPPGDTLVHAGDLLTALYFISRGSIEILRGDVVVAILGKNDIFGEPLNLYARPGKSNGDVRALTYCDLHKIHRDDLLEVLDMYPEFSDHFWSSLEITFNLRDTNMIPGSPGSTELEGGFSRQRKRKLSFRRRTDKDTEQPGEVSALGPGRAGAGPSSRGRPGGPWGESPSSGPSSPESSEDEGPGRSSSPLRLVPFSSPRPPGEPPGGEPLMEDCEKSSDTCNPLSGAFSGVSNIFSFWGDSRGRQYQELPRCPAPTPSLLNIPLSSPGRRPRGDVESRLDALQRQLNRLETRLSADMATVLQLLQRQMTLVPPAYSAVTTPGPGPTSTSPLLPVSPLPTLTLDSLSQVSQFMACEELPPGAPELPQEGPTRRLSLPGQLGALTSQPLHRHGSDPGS
row,SMILES,"hERG current change (%, negative = inhibition) at 1uM [%]"
1,Cc1ccc(-c2csc(=S)n2CC(=O)OCC(=O)NC(C)C(C)C)cc1 (stereo not shown),1.6
2,COC(=O)CCCCCCCCC(=O)Nc1nc2ccccc2s1,12.6
3,CCOC(=O)CSc1nnc(CNC(=O)c2ccc(OC)c(OC)c2)n1C,5.33
4,CCN(CC(=O)Nc1ccc2c(c1)OC(F)(F)O2)Cc1nc2ccccc2c(=O)[nH]1,0.0926
5,O=C1c2cccc(OCC(=O)N3CCCc4ccccc43)c2CCN1Cc1cccnc1,0.823
6,CCOc1ccccc1-n1c(=O)c2ccccc2c2ccccc2c1=O,10.3
7,Cc1cc(C)nc(SC2c3cccc4cccc(c34)C2NS(=O)(=O)c2ccccc2)n1 (stereo not shown),4.57
8,COc1cccc(CC(=O)Nc2nc(C)cs2)c1,0.301
9,CCS(=O)(=O)N1CCN(C(=O)CCC2CCCC2)CC1,1.24
10,COc1ccccc1N/C(N)=N/c1nc(C)cc(C)n1,-2.38
11,CCOc1ccc(CCNC(=O)CCNS(=O)(=O)c2ccc(Br)cc2)cc1OCC,7.4
12,CCSc1nnc(NC(=O)CCN2C(=O)C3CCCCC3C2=O)s1 (stereo not shown),-0.783
13,CC(=O)Nc1cccc(Oc2ncnc3scc(-c4ccc(C)cc4)c23)c1,8.55
14,O=S(=O)(c1ccccc1)c1nc(-c2ccco2)oc1Nc1ccccc1,6.9
15,COc1ccc(C)cc1S(=O)(=O)NC1CCCCC1,-2.7
16,S=c1nc(-c2ccc(Br)cc2)oc2c1CCCC2,23.4
17,O=C(COc1cc2oc(=O)cc(-c3ccccc3)c2cc1Cl)NC(Cc1c[nH]c2ccc(O)cc12)C(=O)O (stereo not shown),10.7
18,Cc1ccc2c(c1)cc1c(=O)[nH]ncn12,11.5
19,CCOC(=O)c1[nH]c2ccccc2c1NC(=O)c1nonc1C,-13.4
20,CC(C)[NH+]1CCN(C(=O)c2ccc(NC(=O)c3ccc(Br)o3)cc2)CC1.O=C(O)C(F)(F)F,4.96
21,Cn1c(C(=O)NCCCN2CCOCC2)cc2c(=O)n(C)c3ccccc3c21,6.12
22,COc1ccc(CC(=O)NCC(=O)N/N=C/c2ccc(C)o2)cc1,12.4

row,SMILES,"hERG current change (%, negative = inhibition) at 1uM [%]"
1,O=c1[nH]c(C2CCCCC2)nc2ccccc12,-1.2
2,CCC(C)(NC(=O)c1ccc2c(c1)OCO2)C(=O)NC1CCCCC1 (stereo not shown),6.99
3,NC1=NC(=O)/C(=C/c2cccs2)S1,5.11
4,CCN(CC)C(=O)CSc1nnc(CCNC(=O)OC(C)(C)C)o1,4.5
5,Cc1cccc(NC(=S)NCc2ccc3[nH]c4c(c3c2)CCCC4)c1,15.9
6,COc1ccc(N(CC(=O)Nc2ccc(C)cc2C)S(=O)(=O)c2ccccc2[N+](=O)[O-])c(OC)c1,0.0301
7,CC1(C)OC(=O)N(c2ccccc2)C12C=Cc1c(ccc3ccccc13)O2 (stereo not shown),17.4
8,O=C(O)c1cccc(-n2nnnc2SCc2ccccc2Cl)c1,14.8
9,CCC(C)(C)NC(=O)c1cccc(NC(=O)C(C)C)c1,13.9
10,CC(NC(=O)c1cccc(S(=O)(=O)N2CCc3ccccc3C2)c1)c1ccco1 (stereo not shown),-1.31
11,O=C(CCn1c(=O)[nH]c2ccccc2c1=O)Nc1ccccc1,17.1
12,Cc1cc(F)ccc1S(=O)(=O)Nc1ccccc1C(=O)Nc1ccccc1N1CCOCC1,9.44
13,CNc1ccccc1-c1nc2ccccc2n(C)c1=O,0.751
14,COc1ccc(OCC(=O)Nc2ccc(S(=O)(=O)N3CCOCC3)cc2)cc1,16.5
15,CN(Cc1cccnc1)C(=O)CCCc1c[nH]c2ccccc12,17
16,O=C(Nc1ccc(S(=O)(=O)N2CCCC2)cc1)c1cc(F)c(F)cc1Cl,6.64
17,Cc1ccc(NC(=O)CN2C(=O)NC(C)(C3CC3)C2=O)cc1S(=O)(=O)N1CCCCC1 (stereo not shown),2.21
18,CCOCc1[nH]c(=S)[nH]c(=O)c1Cc1ccc(OCC(C)C)cc1,15.4
19,COc1ccc(-n2c(SCC(=O)N3CCOCC3)nnc2C(C)N2CCCCC2)cc1 (stereo not shown),6.21
20,Cc1ccc(NC(=O)CN(C)C(=O)c2cc(-c3cccs3)nn2-c2ccccc2)cc1,4.38
21,CCOc1ccc(C2Nc3ccccc3NC3=C2C(=O)CC(C)(C)C3)cc1OC (stereo not shown),15.2
22,Cc1noc(C)c1CCC(=O)N1CCCC(CO)(Cc2ccccc2)C1 (stereo not shown),7.75

row,SMILES,"hERG current change (%, negative = inhibition) at 1uM [%]"
1,CC(=O)N1c2ccc(S(=O)(=O)N3CCCC(C(=O)N4CCCC(C)C4)C3)cc2CC1C (stereo not shown),25.7
2,O=C(CNC(=O)c1ccco1)NCC(c1ccco1)N1CCCCC1 (stereo not shown),11.7
3,CCN1C(=O)c2cccc3c(S(=O)(=O)N4CCCC4C(=O)O)ccc1c23 (stereo not shown),9.87
4,CN(C)/N=C/c1ccc(N2CCOCC2)cc1,-5.23
5,O=C(CN1CCN(C(=O)C2CCC2)CC1)Nc1ccc(F)cc1,-27.3
6,CCCCCCCCN1[C@@H](CC(=O)OCC)c2cc(F)ccc2S1(=O)=O,6.55
7,CC(C)(C)NCC(O)Cn1cc(C=O)c2ccccc21 (stereo not shown),11.4
8,Cc1cc(C)n(CCCNC(=O)C2CCC(=O)N(CCc3ccc(Cl)cc3)C2)n1 (stereo not shown),-5.79
9,Cc1cccc(NC(=O)CSc2cn[nH]n2)c1,8.25
10,COC(=O)c1ccc(N=NNc2ccc(C(=O)OC)cc2)cc1,17.5
11,COc1cccc(C(C)NC(=O)Nc2cc(Cl)ccc2OC)c1 (stereo not shown),13.5
12,CC#CC[N+](C)(C)CCCCCC.[Cl-],14.4
13,CCOC(=O)C1=NN(c2ccc(OC)cc2)C(c2ccccc2)CC1=O (stereo not shown),8.31
14,CCOC(=O)c1sc(NC(=O)CCN2CCN(CC)CC2)c(C(=O)OCC)c1C,-59.8
15,Cc1ccc(C)c(C(=O)n2cnnc2N)c1,10.1
16,CC(C)(C)NC(=O)C(=O)NNC(=O)c1ccccc1Br,3.35
17,Cc1cccc2c1N(CCCOc1ccc(C(C)(C)C)cc1)C(=O)C2=O,5.93
18,CC(C)CCn1c(O)c(N=NC(=O)Cn2ccc(C(F)(F)F)n2)c2ccccc21,3.71
19,Cc1noc(C)c1CSc1nnc2sc3ccccc3n12,0.273
20,CC(OC(=O)C12CCC(=O)N1c1ccccc1S2)C(=O)Nc1cccc(Cl)c1 (stereo not shown),4.74
21,Cn1c(CNC(=O)c2ccc3c(c2)OCO3)nnc1SCC(=O)Nc1ccc(F)cc1F,8.18
22,COc1ccccc1C1NC(c2ccccc2OC)C(C)C(=O)C1C (stereo not shown),-17.9

row,SMILES,"hERG current change (%, negative = inhibition) at 1uM [%]"
1,COC(=O)C1=C(C(C)=O)C(c2ccc(C(=O)OC)cc2)n2nnnc2N1 (stereo not shown),9.32
2,CCN1C(=O)[C@H]2[C@@H](c3ccc(-c4ccc(C(C)=O)cc4)cc3)N3CCC[C@@]3(C(=O)OC)[C@H]2C1=O.O=C(O)C(F)(F)F,4.66
3,COc1cc(/C=C/C(=O)O)cc(S(=O)(=O)Nc2ccc3cn[nH]c3c2)c1OC,6.67
4,O=C(NNC(=S)Nc1ccccc1)c1cccc(Br)c1,10
5,CCOC(=O)c1ccc(-n2c(CCC(=O)O)ccc2-c2cccs2)cc1,12.4
6,O=C(CCNC(=O)c1ccco1)Nc1ccc(OC(F)F)c(Cl)c1,0.759
7,Cn1c(=O)[nH]c(=O)c2c1nc(N1CCOCC1)n2CC(=O)c1ccccc1,5.78
8,CC(=O)OCC(=O)c1c[nH]c2ccccc12,14.1
9,CC(=O)c1cccc(NC(=O)[C@@H](NC(N)=O)C(C)C)c1,24.6
10,CC(=O)Nc1ccc(S(=O)(=O)N2CCN(c3nc(NC4CCCC4)c4ccccc4n3)CC2)cc1,-47.7
11,O=C1NC(c2ccccc2)=NC1(NS(=O)(=O)c1ccc(Cl)cc1)C(F)(F)F (stereo not shown),5.71
12,CC(C)c1ccc(NC(=O)COc2nnc(-c3cccs3)c(-c3cccs3)n2)cc1,13.9
13,COC(=O)[C@@H]1C[C@@H]2CC[C@@H](O)C[C@@H]2N1Cc1ccc(OC)cc1,7.58
14,COc1cc(/C=N/NC(=O)c2ccccn2)ccc1OC(=O)c1ccc(Br)cc1,4.42
15,N#Cc1ccccc1CSC1=NCCS1,16
16,Cc1c(Cl)cccc1NC(=S)NCCC(c1ccccc1)c1ccccc1,8.68
17,COc1ncc(-c2ccc3c(c2)S(=O)(=O)c2cccc(C(=O)O)c2C3=O)cn1,9.9
18,COc1ccc(N2CCN(CCNC(=O)Nc3ccc(Cl)cc3)CC2)cc1,-23.8
19,COc1ccc(-c2noc(COc3ccc(C)c(C)c3)n2)cc1OC,6.98
20,CCCOc1ccc(Oc2ccc(S(=O)(=O)N3CCN(C)CC3)cn2)cc1,12.9
21,Cc1nnc2sc(-c3ccc(-c4ccc(Cl)c(C(F)(F)F)c4)o3)nn12,15.1
22,CCC1CCCCN1CCCNC(=O)c1nn(C)c2c1CS(=O)(=O)c1ccccc1-2 (stereo not shown),9.59

# Source: PMC4336329 (PLoS ONE, 2015)
